# From PubChem BioAssay AID588342 (National Center for Advancing Translational Sciences (NCATS), 2011)
# Among all 360,000 compounds or so, about 25,000 (6.9%) were called active. Inconclusive results, whose numbers are uncertain, are shown with a selection of clear calls. Calls come from the whole dose curve; as a rule, active = well fitted inhibition curve with a large enough effect; inconclusive = small, poorly fitted or top-dose-only effect; inactive = flat fitted curve, though single readings scatter. Potencies of inconclusive entries are doubtful fits and often do not repeat.
# Target: Luciferin 4-monooxygenase (Photinus pyralis) (UniProt P08659)
# UniProt P08659, sequence (P08659 whole entry, looked up): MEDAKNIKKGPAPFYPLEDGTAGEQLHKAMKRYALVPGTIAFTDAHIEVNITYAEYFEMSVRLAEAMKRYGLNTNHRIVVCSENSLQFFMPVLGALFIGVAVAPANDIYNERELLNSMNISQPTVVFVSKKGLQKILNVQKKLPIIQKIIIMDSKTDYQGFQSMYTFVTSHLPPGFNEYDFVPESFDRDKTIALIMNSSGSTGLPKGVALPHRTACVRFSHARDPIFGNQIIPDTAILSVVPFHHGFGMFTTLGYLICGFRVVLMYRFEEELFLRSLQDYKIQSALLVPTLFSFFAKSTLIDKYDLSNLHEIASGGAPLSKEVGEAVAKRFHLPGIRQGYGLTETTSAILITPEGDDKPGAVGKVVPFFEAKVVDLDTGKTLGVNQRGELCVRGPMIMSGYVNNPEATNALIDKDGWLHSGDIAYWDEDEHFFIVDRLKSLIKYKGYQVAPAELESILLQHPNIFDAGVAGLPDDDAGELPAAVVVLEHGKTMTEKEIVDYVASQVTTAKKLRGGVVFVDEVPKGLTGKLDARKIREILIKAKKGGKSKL
# Assay: qHTS profiling assay for firefly luciferase inhibitor/activator using purifed enzyme and Km concentrations of substrates (counterscreen for miR-21 project); note: nearly all actives have a fitted effect of over 55% in size
# Conditions: purified FLuc, luminescence inhibition; series mostly up to 57.5 µM
# Excerpt: MLPCN Grant: 1 R21 NS059478-01 (miR-21 grant) Assay Provider: NCGC NCGC Assay Overview: Firefly (Photinus pyralis) luciferase is one of the most commonly used transcriptional reporters for a number of reasons. It is considered one of the more dynamically responsive reporters -that is, responsive to changes in reporter transcription - as it requires no post-translational modifications and is enzymatically active directly after protein synthesis (Wood, 1998). Additionally, the half-life of the luciferase protein is short relative to other reporter-gene products (Wood, 1995). Whereas reporters with long half-lives potentially allow for increased signal due to accumulation of reporter-gene product, once accumulated in the cell, dynamic changes in reporter-gene expression may be difficult to detect(Fan and Wood, 2007; Almond et al., 2004). It has been shown that wild-type P. pyralis luciferase has a half-life of approximately […] hours in mammalian cells (Thompson et al., 1991). Firefly luciferase reporter-gene assays are also generally considered one of the most sensitive assay types (Wood, 1995; Wood, 1998). Although light produced in a bioluminescence reaction is of lower intensity than that produced during fluorescence emission, this is offset by little to no background light inherent to luminescent assays. Thus the luciferase reporter can be expressed at much lower levels than fluorescent proteins while still providing robust signal. # However, it was initially observed, in 1991, by Thompson et al., that compounds that resemble the substrates of firefly luciferase (FLuc) can act as competitive inhibitors of the enzyme, and that these compounds, upon interaction with luciferase in the cell, can actually stabilize the protein and increase its half-life. Accumulated intracellular FLuc protein can be measured as an increase in luminescence signal, upon addition of detection reagents (which contain high concentrations of FLuc substrates) commonly used in high-throughput screening. In cell-based reporter gene assays that use FLuc as the reporter gene to quantitate the potential influence of a given compound against the target biology, this apparent increase in luminescence can mistakenly be interpreted as identification of a compound that is active against the target of interest. This is the case for the miR-21 FLuc reporter gene assay used to identify inhibitors of the miR-21 pathway (PubChem AID 2289) - compounds of interest will inhibit miR-21 biogenesis/expression or activity, and are identified by causing an increase in luminescence, due to increased FLuc translation. However, FLuc inhibitory compounds that stabilize the FLuc protein will give an identical read-out, making it difficult to distinguish compounds that are active against the target from those active against FLuc. Previous profiling work to determine the prevalence of compounds that affect FLuc enzymatic activity (PubChem AID 411) identified that ~3% of the MLSMR library (then at ~72K) inhibited FLuc. […] Since the MLSMR had grown to ~350K compounds, and since it was expected that a significant percentage of compounds found active in the miR-21 FLuc assay would be FLuc inhibitors, the library was screened for activity against FLuc using a biochemical assay of purified FLuc and KM concentrations of FLuc substrates (D-luciferin and ATP).
# NCGC Assay Protocol Summary: Reagents: 50mM Tris acetate, pH 7.5; 10mM Mg acetate; 10uM D-luciferin (Sigma #L9504); 10uM ATP; 0.01% Tween-20; 0.05% BSA; 10nM P. pyralis luciferase (Sigma #L9506) Control compounds used were two known firefly luciferase inhibitors (compounds (2) and (5) in Auld et al., 2010), and DMSO. […]
# Tags give direction and shape of the fitted curve.
row,Compound,Potency
1,O=C(/C=C/c1ccc(Cl)cc1Cl)NCCSc1ccccc1,"inconclusive: 23.9 µM [inhibitor, single point]"
2,CCCCOCCCNc1ncnc2c1[nH]c1ccccc12,"inconclusive: 37.9 µM [inhibitor, single point]"
3,OCCOCCOc1ccc(-c2nn[nH]n2)cc1,"inconclusive: 23.9 µM [inhibitor, single point]"
4,O=C(CCN1C(=O)S/C(=C\c2ccc(Cl)cc2)C1=O)Nc1ccc(C(=O)O)cc1,active: 15.1 µM
5,O=C(Cc1ccccc1)Nc1nc2ccccc2s1,active: 26.9 µM
6,CC(=O)c1ccc(N2CCN(C(=O)Nc3cn(CC(C)C)c(=O)c4ccccc34)CC2)cc1,inactive
7,O=C(/C=C/c1ccccc1)NCc1ccc2c(c1)OCO2,"inconclusive: 23.9 µM [inhibitor, partial curve, poor fit]"
8,CN(C)c1ccc(NC(=S)c2ccc3ccccc3n2)cc1,active: 16.9 µM
9,Nc1c2nc(-c3ccccc3Cl)[nH]c(=O)c2nc(=O)n1-c1ccccc1,"inconclusive: 33.8 µM [inhibitor, partial curve, poor fit]"
10,COc1ccc(N2CCN(C(CNC(=O)C(C)C)c3ccc4c(c3)OCO4)CC2)cc1 (configuration not stated),inactive
11,Cc1cccc(-c2nc(C#N)c(NC3CCCCC3)o2)c1,active: 7.57 µM
12,OCc1cn(-c2ccccc2)nc1-c1ccc2c(c1)OCCO2,active: 21.3 µM
13,Cc1ccc(C(=O)NCCSc2snnc2C)cc1,"inconclusive: 23.9 µM [inhibitor, partial curve, poor fit]"
14,CCOC(=O)C1CCN(S(=O)(=O)c2cc(-c3cc(C)no3)ccc2OC)CC1,inactive
15,COc1ccccc1C1=NOC(COC(=O)c2ccc(Br)cc2)C1 (configuration not stated),"inconclusive: 21.3 µM [inhibitor, single point]"
16,N#C/C(=C\c1ccc(N2CCCCC2)o1)C(N)=O,"inconclusive: 19 µM [inhibitor, partial curve]"
17,CCCN(CCC)C(=O)C1CCN(c2ccc(S(=O)(=O)N3CCOCC3)cc2[N+](=O)[O-])CC1,inactive
18,COc1ccc(C)cc1Nc1c2c(nc3ccccc13)CCC2,inactive
19,Cc1ccc(NC(=S)NCc2ccc(Cl)cc2)c(C)c1,inactive
20,O=C(CCS(=O)(=O)c1ccccc1)N1CCN(c2ccccc2)CC1,active: 12 µM
21,COc1ccc(/C=C/C(=O)c2c(O)c(OC)c3occc3c2OC)cc1,"inconclusive: 37.9 µM [inhibitor, single point]"
22,S=c1[nH]nc(COc2ccc3ccccc3c2)o1,"inconclusive: 13.5 µM [inhibitor, partial curve]"
